# Assay results as given in US9744222B2, “Peptide for vaccine” (Circassia Limited, priority 2007, dated 2017).
# At least one peptide structure holds a part that was inferred or is arguable (an end, a ring closure or a residue). Where a SMILES comes first, the peptide text is derived from it.
# Key:
# Experiment in all cases: Competitive MHC class II binding assay
# DRB1*0701 = DRB1*0701 (Homo sapiens, UniProt P01903+P01911, A100R/A102G/A103Q/D57E/D86V/E43K/F76Y/K127E/L162R/M171V/P40G/Q125H/Q99D/R33Q/R42Y/R54Q/S133A/S66F/T210M/V115G/Y107V/Y59L/Y89S); settings: control peptide Influenza haemagglutinin 307-319
# DRB1*0101 = DRB1*0101 (Homo sapiens, UniProt P01903+P01911, A100R/D57E/F55L/F60I/F76Y/I96L/L162R/M171V/P40L/Q125E/R42F/V115G/Y59C); settings: control peptide Influenza haemagglutinin 307-319
# DRB1*1101 = DRB1*1101 (Homo sapiens, UniProt P01903+P01911, A100R/A169T/A87E/I96F/K41T/L162R/M171V/P40S/Q125H/Q178H/Q39Y/Q99D/R42S/S66Y/T262R/V115G/W38E); settings: control peptide Influenza haemagglutinin 307-319
# DRB1*0401 = DRB1*0401 (Homo sapiens, UniProt P01903+P01911, A100K/A169T/F76Y/I96L/K127E/L162R/M171V/N62H/P40V/Q125Y/R42H/S133A/S149N/S66Y/V115G/V209L/W38E); settings: control peptide Influenza haemagglutinin 307-319
# DRB1*0301 = DRB1*0301 (Homo sapiens, UniProt P01903+P01911, A100K/A102G/A103R/A169T/F55Y/I96L/K41T/L162R/M171V/P40S/Q125H/Q178H/Q39Y/R42S/S66N/T106N/T262R/W38E/Y61H); settings: control peptide Myco. tuberculosis/leprae hsp 65 2-16
# Description: This is a characteristic of promiscuous HLA-DRB1* binders.
Structure (SMILES),"Relative binding, ratio of own IC50 to that of the control peptide, DRB1*0701 (DRB1*0701)","Relative binding, ratio of own IC50 to that of the control peptide, DRB1*0101 (DRB1*0101)","Relative binding, ratio of own IC50 to that of the control peptide, DRB1*1101 (DRB1*1101)","Relative binding, ratio of own IC50 to that of the control peptide, DRB1*0401 (DRB1*0401)","Relative binding, ratio of own IC50 to that of the control peptide, DRB1*0301 (DRB1*0301)"
CC[C@H](C)[C@H](NC(=O)[C@H](C)NC(=O)[C@H](CS)NC(=O)[C@H](C)NC(=O)[C@H](CC(C)C)NC(=O)[C@@H](NC(=O)CNC(=O)[C@@H](N)CC(=O)O)C(C)C)C(=O)N[C@@H](C)C(=O)N[C@H](C(=O)N[C@@H](Cc1c[nH]cn1)C(=O)N[C@@H](C)C(=O)N[C@@H](CCCCN)C(=O)N[C@H](C(=O)N[C@@H](CCCNC(=N)N)C(=O)O)[C@@H](C)CC)[C@@H](C)O [HDM26A] (H-DGVLACAIATHAKIR-OH; N-terminus and C-terminus assumed),16.28,42.3,,,
CC(C)C[C@H](NC(=O)[C@H](CCC(N)=O)NC(=O)[C@H](Cc1ccccc1)NC(=O)[C@@H]1CCCN1C(=O)[C@H](CCCCN)NC(=O)CNC(=O)[C@@H](N)CCCNC(=N)N)C(=O)N[C@@H](CCC(=O)O)C(=O)N[C@@H](C)C(=O)N[C@H](C(=O)N[C@@H](Cc1ccccc1)C(=O)N[C@@H](CCC(=O)O)C(=O)N[C@@H](C)C(=O)N[C@@H](CC(N)=O)C(=O)N[C@@H](CCC(N)=O)C(=O)N[C@@H](CC(N)=O)C(=O)N[C@H](C(=O)O)[C@@H](C)O)C(C)C [HDM21B] (H-RGKPFQLEAVFEANQNT-OH; N-terminus and C-terminus assumed),,13.5,4.1,0.78,
CC[C@H](C)[C@H](NC(=O)[C@H](C)NC(=O)[C@@H](N)[C@@H](C)O)C(=O)N[C@@H](Cc1ccccc1)C(=O)N[C@@H](CCC(N)=O)C(=O)N[C@@H](CC(=O)O)C(=O)N[C@H](C(=O)N[C@H](C(=O)N[C@@H](CCCNC(=N)N)C(=O)N[C@@H](C)C(=O)N[C@@H](CCC(=O)O)C(=O)N[C@@H](CCSC)C(=O)N[C@H](C(=O)N[C@@H](CCCCN)C(=O)O)[C@@H](C)O)C(C)C)[C@@H](C)O [HDM48] (H-TAIFQDTVRAEMTK-OH; N-terminus and C-terminus assumed),15.71,,13.57,,211.26
CC[C@H](C)[C@H](NC(=O)[C@H](CC(N)=O)NC(=O)[C@@H](N)CCCNC(=N)N)C(=O)N[C@@H](CCC(N)=O)C(=O)N[C@H](C(=O)N[C@@H](CCCNC(=N)N)C(=O)NCC(=O)N[C@@H](CC(C)C)C(=O)N[C@@H](CCCCN)C(=O)N[C@@H](CCC(N)=O)C(=O)N[C@@H](CCSC)C(=O)N[C@@H](CCCCN)C(=O)N[C@@H](CCCNC(=N)N)C(=O)N[C@H](C(=O)NCC(=O)O)C(C)C)C(C)C [HDM34] (H-RNIQVRGLKQMKRVG-OH; N-terminus and C-terminus assumed),,,3.38,,
CC(C)[C@H](NC(=O)[C@H](Cc1ccc(O)cc1)NC(=O)[C@@H](N)CCCNC(=N)N)C(=O)N[C@@H](C)C(=O)N[C@@H](CCCNC(=N)N)C(=O)N[C@@H](CCC(=O)O)C(=O)N[C@@H](CCC(N)=O)C(=O)N[C@@H](CO)C(=O)N[C@@H](CS)C(=O)N[C@@H](CCCNC(=N)N)C(=O)N[C@@H](CCCNC(=N)N)C(=O)N1CCC[C@H]1C(=O)N[C@@H](CC(N)=O)C(=O)O [HDM06] (H-RYVAREQSCRRPN-OH; N-terminus and C-terminus assumed),,,30.36,,
CC(C)C[C@H](NC(=O)[C@H](CCC(N)=O)NC(=O)[C@H](Cc1ccccc1)NC(=O)[C@@H]1CCCN1C(=O)[C@@H](N)CCCCN)C(=O)N[C@@H](CCC(=O)O)C(=O)N[C@@H](C)C(=O)N[C@H](C(=O)N[C@@H](Cc1ccccc1)C(=O)N[C@@H](CCC(=O)O)C(=O)N[C@@H](C)C(=O)N[C@@H](CC(N)=O)C(=O)N[C@@H](CCC(N)=O)C(=O)N[C@@H](CC(N)=O)C(=O)N[C@H](C(=O)O)[C@@H](C)O)C(C)C [HDM21] (H-KPFQLEAVFEANQNT-OH; N-terminus and C-terminus assumed),,92,11.73,11.15,
CC(C)[C@H](NC(=O)[C@H](C)NC(=O)[C@@H](N)CCC(=O)O)C(=O)N[C@@H](Cc1ccccc1)C(=O)N[C@@H](CCC(=O)O)C(=O)N[C@@H](C)C(=O)N[C@@H](CC(N)=O)C(=O)N[C@@H](CCC(N)=O)C(=O)N[C@@H](CC(N)=O)C(=O)N[C@H](C(=O)N[C@@H](CCCCN)C(=O)N[C@H](C(=O)N[C@@H](C)C(=O)N[C@@H](CCCCN)C(=O)O)[C@@H](C)O)[C@@H](C)O [HDM22A] (H-EAVFEANQNTKTAK-OH; N-terminus and C-terminus assumed),,,80,328.6,
CC[C@H](C)[C@H](NC(=O)CNC(=O)[C@@H](NC(=O)[C@H](Cc1c[nH]cn1)NC(=O)[C@H](CCCNC(=N)N)NC(=O)[C@H](CCC(=O)O)NC(=O)[C@H](Cc1ccccc1)NC(=O)[C@H](CCCCN)NC(=O)[C@@H](N)CC(=O)O)[C@@H](C)CC)C(=O)N[C@H](C(=O)N[C@@H](CC(=O)O)C(=O)N[C@@H](CC(C)C)C(=O)N[C@@H](CCCCN)C(=O)O)[C@@H](C)CC [HDM30] (H-DKFERHIGIIDLK-OH; N-terminus and C-terminus assumed),6.2,,,,
CSCC[C@H](NC(=O)[C@H](CCC(N)=O)NC(=O)[C@H](CCCCN)NC(=O)[C@H](CC(C)C)NC(=O)CNC(=O)[C@@H](N)CCCNC(=N)N)C(=O)N[C@@H](CCCCN)C(=O)N[C@@H](CCCNC(=N)N)C(=O)N[C@H](C(=O)NCC(=O)N[C@@H](CC(=O)O)C(=O)N[C@@H](C)C(=O)N[C@@H](CC(N)=O)C(=O)O)C(C)C [HDM35] (H-RGLKQMKRVGDAN-OH; N-terminus and C-terminus assumed),,,1.26,,
CC[C@H](C)[C@H](N)C(=O)N[C@@H](CC(=O)O)C(=O)N[C@@H](CC(C)C)C(=O)N[C@@H](CCCNC(=N)N)C(=O)N[C@@H](CCC(N)=O)C(=O)N[C@@H](CCSC)C(=O)N[C@@H](CCCNC(=N)N)C(=O)N[C@H](C(=O)N[C@H](C(=O)N[C@H](C(=O)N1CCC[C@H]1C(=O)N[C@H](C(=O)N[C@@H](CCCNC(=N)N)C(=O)O)[C@@H](C)CC)[C@@H](C)O)C(C)C)[C@@H](C)O [HDM01] (H-IDLRQMRTVTPIR-OH; N-terminus and C-terminus assumed),16,,,,19.23
CC[C@H](C)[C@H](NC(=O)[C@@H](NC(=O)[C@H](C)NC(=O)[C@@H](NC(=O)[C@H](C)NC(=O)[C@H](CO)NC(=O)[C@H](Cc1c[nH]cn1)NC(=O)[C@@H](NC(=O)[C@H](CCC(N)=O)NC(=O)[C@H](C)NC(=O)[C@H](CC(C)C)NC(=O)[C@H](C)NC(=O)[C@H](CCC(=O)O)NC(=O)[C@@H](N)CCCNC(=N)N)[C@@H](C)O)[C@@H](C)CC)C(C)C)C(=O)O [HDM09A] (H-REALAQTHSAIAVI-OH; N-terminus and C-terminus assumed),0.49,,21.15,,
CC[C@H](C)[C@H](NC(=O)[C@H](CC(N)=O)NC(=O)[C@H](CCCNC(=N)N)NC(=O)[C@H](CCSC)NC(=O)[C@H](CC(=O)O)NC(=O)[C@@H](N)CC(C)C)C(=O)N[C@@H](CCC(N)=O)C(=O)N[C@H](C(=O)N[C@@H](CCCNC(=N)N)C(=O)NCC(=O)N[C@@H](CC(C)C)C(=O)N[C@@H](CCCCN)C(=O)N[C@@H](CCC(N)=O)C(=O)O)C(C)C [HDM33] (H-LDMRNIQVRGLKQ-OH; N-terminus and C-terminus assumed),46.51,,41.5,,
CC[C@H](C)[C@H](NC(=O)[C@H](CC(N)=O)NC(=O)[C@H](CCCNC(=N)N)NC(=O)[C@H](CCSC)NC(=O)[C@H](C)NC(=O)[C@H](CC(C)C)NC(=O)[C@H](CCC(=O)O)NC(=O)CNC(=O)[C@H](CCCCN)NC(=O)[C@H](Cc1ccccc1)NC(=O)[C@H](CC(=O)O)NC(=O)[C@@H](N)C(C)C)C(=O)N[C@@H](CCC(=O)O)C(=O)O [HDM51] (H-VDFKGELAMRNIE-OH; N-terminus and C-terminus assumed),20.93,,30.91,,
CC(C)C[C@H](NC(=O)[C@H](CCC(N)=O)NC(=O)[C@H](Cc1ccccc1)NC(=O)[C@@H]1CCCN1C(=O)[C@@H](N)CCCCN)C(=O)N[C@@H](CCC(=O)O)C(=O)N[C@@H](C)C(=O)N[C@H](C(=O)N[C@@H](Cc1ccccc1)C(=O)N[C@@H](CCC(=O)O)C(=O)N[C@@H](C)C(=O)N[C@@H](CC(N)=O)C(=O)N[C@@H](CCC(N)=O)C(=O)N[C@@H](CC(N)=O)C(=O)N[C@H](C(=O)N[C@@H](CCCCN)C(=O)O)[C@@H](C)O)C(C)C [HDM21A] (H-KPFQLEAVFEANQNTK-OH; N-terminus and C-terminus assumed),,200,10.27,52.17,
